Measurements from PubChem BioAssay (Tox21).
“And” between values parts separate entries of the source, which are not always exact repeats. Equal values may be shown once. This list was built around the results that the source calls inconclusive (neither active nor inactive); the mix of calls is not that of the screen. The call rests on the fitted dose curve; in most records, active means well fitted cell-killing curve with a large enough effect in the repeat runs; inconclusive means weak or mixed curves, or effect the other way; inactive means flat fitted curve, though single readings scatter. Potencies of inconclusive entries are doubtful fits and often do not repeat.
Potency means the concentration at half of the fitted maximal effect; tags describe the fitted curve by direction and shape.

Assay: cAMP Responsive Elements (CRE) small molecule antagonists, cell-based qHTS assay: qHTS cell viability counter screen (AID 2060913); further: nearly all actives have a fitted effect of over 40% in size
Conditions: CRE-bla HEK293T viability, CellTiter-Glo luminescence, 5 h; series mostly up to 92.4 µM
Summary of the method: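 Steps: cells plated and held 18 hrs at 37 C/5% CO2; compounds and NKH477 (0.25 uM final) added; 3 hrs incubation; reporter substrate read; CellTiter-Glo added to measure cytotoxicity by luminescence.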
For Oc1ccc(C(c2ccc(O)cc2)(C(F)(F)F)C(F)(F)F)cc1, the Potency was inconclusive: 1.28 µM [cytotoxic, single point]. For N#CC(C#N)=NNc1cccc(Cl)c1, the Potency was inconclusive: 0.864 µM [cytotoxic, partial curve]. With CC[N+]1(C)CCCC1 the Potency was inconclusive: 2.8 µM [cytotoxic, single point] and inconclusive: 30.7 µM [cytotoxic, partial curve, poor fit] and inconclusive: 27.2 µM [cytotoxic, full curve, poor fit].
